Source: ChEMBL document CHEMBL4888484, “Replenishing the malaria drug discovery pipeline: Screening and hit evaluation of the MMV Hit Generation Library 1 (HGL1) against asexual blood stage Plasmodium falciparum ,using a nano luciferase reporter read-out” (2022)
Hit rate of the full screen: of about 150,000 compounds, about 540 (0.36%) showed an effect of 50% or more. The list shows a part of the results.

System: Plasmodium falciparum
Assay: Primary screen in NF54 nanoGlo assay, in single point, at 2uM, 72h; a lower Z score goes with more inhibition
Assay type: functional, Erythrocyte
Settings: timepoint 72 hour

| Structure (SMILES) | % Inhibition | Z score |
| --- | --- | --- |
| CCc1c(C)sc2ncnc(N[C@@H](C)c3cnn(C)c3)c12 | -2% | 0.47 |
| Cc1ccc(CNC(=O)Cc2nnc(-c3ccc4ncccc4c3)o2)cc1C | 9% | -0.89 |
| COc1cc(CCO)ccc1NC1CCN([C@H]2CCOC2)CC1 | 9% | -1.34 |
| Cc1ccc(N(C)[C@H]2CCCN(C(=O)Nc3ccc(F)cc3CS(C)(=O)=O)C2)cc1 | -8% | 1.04 |
| O=C(c1ccc2ccccc2n1)N1CCCCCCC1 | 5% | -0.59 |
| O=C(CN1c2ccc(F)cc2-c2ccccc2S1(=O)=O)N1CCN(Cc2ccccc2)CC1 | 0% | -0.07 |
| Cc1ccc(C)c(S(=O)(=O)NCCCN(C)C)c1 | 1% | -0.11 |
| CCCCN1CCN(C(=O)[C@H](CC)N(C)CC)CC1 | -5% | 0.87 |
| O=C(NCc1ccc2c(c1)OCO2)C(F)(F)C(F)(F)C(F)(F)C(F)(F)C(=O)NCc1ccc2c(c1)OCO2 | 37% | -4.23 |
| CCOc1ccccc1C(=O)N1CCOCc2ccccc21 | -2% | 0.33 |
| Cc1noc(C)c1S(=O)(=O)N1CC(n2cc(C(=O)N(C)C)nn2)C1 | -15% | 2.88 |
| Cc1cccn2c(=O)cc(CN3CCCCC3)nc12 | 27% | -3.52 |
| CN(C)c1ccc(C(=O)N[C@H]2C[C@H]3C(=O)NC[C@@H](CCC(=O)NCc4ccc(F)cc4)N3C2)cc1 | -7% | 1.33 |
| Cc1nnc(-c2ccccc2-c2ccc(F)cc2Cl)o1 | -13% | 1.23 |
| Cc1ccc(S(=O)(=O)c2ncccc2CN2CCN(c3ccc(F)cc3)CC2)cc1 | 1% | -0.19 |
| Cc1nc(CN2CCC[C@H]2c2cccn2C)cs1 | -7% | 1.08 |
| OCCC1(Nc2nc(C3CCCC3)ns2)CCCC1 | 2% | -0.43 |
| O=C(O)c1ccc2nc(-c3ccc(Oc4ccccc4)cc3)c(-c3ccc(Oc4ccccc4)cc3)nc2c1 | 1% | -0.26 |
| CN(Cc1ccon1)C(=O)C[C@]1(c2ccc(-c3ccccc3)cc2)CC(=O)N(C)C1=O | -6% | 1.13 |
| Cc1cccc(C(=O)N(Cc2cccs2)[C@H]2CCS(=O)(=O)C2)c1 | -13% | 1.2 |
| O=C(Cn1ccc([C@H]2CCCNC2)n1)NCc1c(F)cccc1Cl | 0% | -0.03 |
| O=C(NCC[C@H]1CCOC1)C1(N2CCCC2)CCCC1 | 2% | -0.15 |
| CC1(C)NC(=O)N(CCCS(=O)(=O)Cc2ccccc2F)C1=O | 12% | -1.53 |
| CCn1cc(OCc2ccc(C(F)F)cc2)cn1 | -7% | 1.32 |
| CC(=O)c1ccc(NC(=O)c2cc(=O)c(OCc3ccccc3)c[nH]2)cc1 | -9% | 1.1 |
| CCCc1nc(CN(C(C)C)C2COC2)no1 | 2% | -0.29 |
| CC1CN(CC(O)COc2ccc3c(c2)OCO3)CC(C)O1 (stereo not given) | -15% | 2.69 |
| C[C@@H](c1ccncn1)N(C)Cc1cc(=O)n2ncnc2[nH]1 | -7% | 0.91 |

| Structure (SMILES) | % Inhibition | Z score |
| --- | --- | --- |
| O=C(Nc1ccc(CCC(F)(F)F)cc1)N1C[C@@H](O)C[C@H]1CO | -9% | 1.02 |
| O=C(NC1CCCCCCC1)[C@H]1CCCN(c2ccc3nnnn3n2)C1 | -21% | 2.98 |
| Cn1cc([C@@H](O)C(=O)N2CCC(c3c[nH]c4ccccc34)CC2)cn1 | -7% | 0.75 |
| COC[C@H]1CN(C(=O)c2ccc3ncccc3c2)CC12CCOCC2 | -19% | 3.56 |
| COCc1csc(NC(=O)Nc2ccsc2)n1 | 7% | -0.8 |
| CCCC1(CNC(=O)Nc2nc(CS(C)(=O)=O)no2)CC1 | 29% | -4.13 |
| O=C(CC1CCC1)NC1CC(F)(F)C1 | -3% | 0.55 |
| Cc1cccc(NC(=O)[C@H](C)n2c(C)nc3onc(C)c3c2=O)c1C | 1% | -0.14 |
| C[C@@H]1CN(C(=O)c2n[nH]c(N)c2Cl)CC[C@@]1(O)C1CCOCC1 | -9% | 1.52 |
| CC1CCN(CCCn2c(=O)[nH]c3ccccc32)CC1 | -6% | 0.75 |
| Cc1nc(C(=O)N(CCc2cccc(F)c2)C2CC2)ccc1C(=O)O | -1% | 0.15 |
| O=C(CN1CCN(S(=O)(=O)c2ccc3c(c2)CCCC3)CC1)Nc1ccc(F)c(Cl)c1 | 3% | -0.26 |
| Cn1c(CC(F)(F)F)nnc1N1CCOCC2(CCC2)C1 | -10% | 1.94 |
| Cc1nn(-c2ccccc2)c(C)c1N1CCN(C(=O)c2ccc3nsnc3c2)CC1 | 4% | -0.63 |
| CCc1ccccc1CN=C(N)NC(C)(C)C | 6% | -0.64 |
| Cc1cc(CNC(=O)NCCC2(C)OCCO2)ccc1Cl | -2% | 0.18 |
| C[C@]1(c2cccc(F)c2)CCN(C(=O)Nc2ccnn2C2CCC2)C1 | -10% | 1.36 |
| Nc1n[nH]c2ccc(C3OCCCO3)cc12 | 37% | -4.79 |
| O=C(Cc1ccc(Cl)cc1)N1CCN(c2cnsn2)CC1 | -15% | 1.98 |
| c1ccc(CCN2CCC(c3ccsc3)CC2)nc1 | 0% | -0.03 |
| N#CCN(Cc1ccccc1)C(=O)CCc1ccc2c(c1)OCO2 | -5% | 0.42 |
| O=C1CN(CCCOc2ccc(F)cc2)CCCN1 | 8% | -1.12 |
| O=C(CN1CCC(O)CC1)N1CCC[C@H](c2[nH]ncc2-c2ccc(F)cc2)C1 | -11% | 1.08 |
| c1ccc(N2CC[C@H](N3CCN(c4ccncc4)CC3)C2)cc1 | 4% | -0.61 |
| Cc1nc(C(=O)N2CCN(Cc3ccccc3)CC2)co1 | -7% | 1 |
| CCCN(CC1CC1)S(=O)(=O)N1CCC[C@@H]1CO | -16% | 1.82 |
| O=C(Cn1cnc2cc3c(cc21)OCCCO3)Nc1ccc(F)cc1 | 31% | -4.49 |
